The results in this text go back to PubChem BioAssay AID488969 (Vanderbilt High Throughput Screening Facility, 2010).

Whole data set: some 110,000 compounds, median “z-score” near -0.1, cut for the highest 2% near 2. The list shows a part of the results.

The target in the assay is Metabotropic glutamate receptor 8 (Rattus norvegicus) (UniProt P70579). Briefly: rat mGluR8 modulators via GIRK flux, primary screen, cell-based, thallium flux, HTS (AID 488969). The settings on record: HEK293 rat mGluR8, GIRK (G protein-gated inwardly rectifying potassium channel) thallium flux, FluoZin2; at 10 µM; stronger effect = higher value; submaximal glutamate (EC20) added with thallium.
Sequence of UniProt P70579 (P70579 whole entry, looked up): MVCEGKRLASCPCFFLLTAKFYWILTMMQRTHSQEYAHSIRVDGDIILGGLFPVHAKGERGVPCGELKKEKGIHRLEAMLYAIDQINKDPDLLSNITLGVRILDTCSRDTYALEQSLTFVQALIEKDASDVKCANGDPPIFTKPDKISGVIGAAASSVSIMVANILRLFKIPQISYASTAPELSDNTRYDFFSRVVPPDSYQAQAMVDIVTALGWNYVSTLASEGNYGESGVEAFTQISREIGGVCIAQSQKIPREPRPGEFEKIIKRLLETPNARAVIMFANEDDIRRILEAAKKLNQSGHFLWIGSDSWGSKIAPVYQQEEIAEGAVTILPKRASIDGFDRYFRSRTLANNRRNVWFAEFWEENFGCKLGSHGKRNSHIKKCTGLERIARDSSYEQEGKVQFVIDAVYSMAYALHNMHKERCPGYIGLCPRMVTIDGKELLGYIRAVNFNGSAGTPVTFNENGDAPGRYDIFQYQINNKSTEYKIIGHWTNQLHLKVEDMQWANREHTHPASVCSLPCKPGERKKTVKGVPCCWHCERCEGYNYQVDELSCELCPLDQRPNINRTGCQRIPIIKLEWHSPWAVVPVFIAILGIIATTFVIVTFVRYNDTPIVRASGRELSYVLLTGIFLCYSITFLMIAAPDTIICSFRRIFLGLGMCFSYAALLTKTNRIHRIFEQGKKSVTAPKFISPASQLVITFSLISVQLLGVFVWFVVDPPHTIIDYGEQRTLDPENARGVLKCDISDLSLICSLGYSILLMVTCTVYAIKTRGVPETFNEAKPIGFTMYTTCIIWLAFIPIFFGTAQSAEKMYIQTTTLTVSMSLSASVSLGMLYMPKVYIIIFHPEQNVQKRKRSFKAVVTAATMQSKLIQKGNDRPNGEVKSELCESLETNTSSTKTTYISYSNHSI
In the case of `Cc1nc2ccc(Cl)cc2c(-c2ccccc2F)c1CC(=O)O`, the z-score was -0.39.

Take `Cc1cc(C)n(CC(=O)N/N=C/c2cccs2)n1`: the z-score is -0.0134.

`Cc1ccc[n+](-c2[nH]c(=O)sc2/C=N/NC(=O)c2ccccc2[O-])c1`: the z-score was -0.2.

`CCOC(=O)N1CCN(c2nc(-c3cccc(OC)c3)cc(C(F)(F)F)n2)CC1` showed a z-score of 0.0804.

For the compound `CCN1C(=O)CSc2ccc(C(=O)NCc3ccccc3OC)cc21`, the z-score was -0.32.

Turning to `Cc1cc(S(=O)(=O)NC2CCCC2)ccc1F`, the z-score was 0.0251.

Take `COC(=O)c1c(-c2ccc(C)cc2)csc1NC(=O)C1CC=CCC1C(=O)O` (configuration not stated): the z-score is -0.421.

With `COc1cc(/C=N/OCC(=O)Nc2ccc(OC(F)F)cc2)ccc1OCc1ccccc1`, the z-score was -0.0267.

For `O=C(CSc1ccc(-c2ccccc2)nn1)NCc1ccco1`, the z-score was found to be 0.457.

For the compound `CNC(=O)COC(=O)c1[nH]c(C)c(C(C)=O)c1C`, the z-score was -0.133.

On to `N#Cc1c(N)c(C(=O)c2ccccc2)n2c1CCCC2`, for which the z-score was -0.142.

Consider `COCCn1c(SCC(=O)Nc2ccc3c(c2)CCC3)nc2ccccc2c1=O`, for which the z-score was -0.106.

Turning to `NC1=C([N+](=O)[O-])C(c2ccc(F)cc2)C2=C(CCCC2=O)O1` (configuration not stated), the z-score was -0.338.

In the case of `C/C(=N\NC(=O)CC#N)c1cc2ccccc2oc1=O`, the z-score is -0.108.

Regarding `Cc1ccc(-n2ncc3c(NCc4ccc5c(c4)OCO5)ncnc32)c(C)c1`, the z-score was -1.5.

`Cc1sc2ncnc(OCC(=O)NCc3cccs3)c2c1C`: the z-score was -1.78.

In the case of `COc1ccc(/C=N/NC(=O)C(=O)/C=C2\NC3(CCCC3)Cc3ccccc32)cc1`, the z-score came to 0.0973.

Turning to `Cc1ccc(NC(=O)Cc2nnc(SCC(=O)Nc3ccccc3)n2C)cc1`, the z-score is -0.164.

`Cc1ccc(N(C(C)C(=O)N2CCCCC2)S(C)(=O)=O)cc1C` (configuration not stated): the z-score was -0.597.

In the case of `Cc1ccc(O)c(C2=Nc3ccccc3N=C(c3ccc([N+](=O)[O-])cc3)C2)c1`, the z-score is -0.258.

For the compound `CN1CC2(Cc3c1ccc1ccccc31)C(=O)OC(C)(C)OC2=O`, the z-score is -0.196.

Turning to `COc1ccc(NC(=S)Nc2ccc(Oc3ccccc3)cc2)cc1`, the z-score is -0.309.

In the case of `CC(C)CC(=O)NC(NC(=S)Nc1sc2c(c1C#N)CCCC2)C(Cl)(Cl)Cl` (configuration not stated), the z-score is -0.307.

Compound `Cc1cc2oc(=O)cc(CN3CCN(Cc4ccccc4)CC3)c2cc1Cl` displayed a z-score of 0.124.

In turn, `CC(=O)Nc1nc(CCC(C)C)cc2c1c(=O)oc1ccccc12` displayed a z-score of 0.573.

On to `O=c1c2ccccc2nc(-c2ccccc2)n1Cc1ccc(Cl)cc1`, for which the z-score is -0.405.

With `CC1(C)CC(=O)C/C(=N\NC(=O)Cc2ccccc2)C1`, the z-score was -0.224.

Consider `Cc1ccc(S(=O)(=O)N2CCN(CC(=O)NC3CCCc4ccccc43)CC2)c(C)c1` (configuration not stated), for which the z-score was -0.116.

As to `CCN(Cc1cc2ccccc2[nH]c1=O)C(=O)C(C)C`, the z-score worked out at 0.118.

With `CC(=O)N1N=C(c2ccncc2)OC12CCCCC2`, the z-score was -0.128.

Consider `CCCS(=O)(=O)N1CCCC(C(=O)NCc2ccco2)C1` (configuration not stated), for which the z-score worked out at 0.0819.

Consider `Cc1nnc(C)n1/N=C/c1cc(Br)ccc1O`, for which the z-score was -0.176.

Turning to `COC(=O)c1cccc(COC(=O)c2ccc(N(C)C)cc2)c1`, the z-score was -0.167.

Take `COC(=O)CN1C(=O)S/C(=C/c2cc(C)n(C)c2C)C1=O`: the z-score is -0.441.

`C=CCn1c(CNC(=O)CCC)nc2ccccc21` gave a z-score of 0.4.

Take `O=C(CN1CCN(c2ccccc2F)CC1)c1ccc2c(c1)OCO2`: the z-score came to 1.11.

The compound `O=C(CC1CCCC1)Nc1ccc2c(c1)CCC2` gave a z-score of 0.0619.

`O=C(N/C(=C\c1cccnc1)C(=O)N1CCOCC1)c1cccc(Br)c1` returned a z-score of 0.0614.

Take `N#CC1=C(S)N(c2ccccc2)C(c2cccs2)NC1=O` (configuration not stated): the z-score was -0.923.

Take `CC(C)CC(C(=O)O)N1C(=O)C2C3CC(C2C1=O)C1C(c2ccccc2)c2sc(=O)[nH]c2SC31` (configuration not stated): the z-score was -0.079.

Consider `O=Cc1cccn1Cc1ccc(Cl)cc1Cl`, for which the z-score is -0.152.

The compound `COc1cc(C2Nc3ccc4ncccc4c3C3=C2C(=O)CC(C)(C)C3)cc(OC)c1O` (configuration not stated) registered a z-score of 0.0317.

Consider `Cc1ccc(NCN2C(=O)C3C4C=CC(C4)C3C2=O)cc1` (configuration not stated), for which the z-score came out at 0.454.

For `COc1cccc(/C=N/NC(=O)c2c(-c3ccccc3)noc2C)c1`, the z-score was -0.634.

The compound `O=C(NCCc1ccccc1)C1CCN(S(=O)(=O)N2CCC3(CC2)OCCO3)CC1` had a z-score of 0.769.

For `COc1cccc(CN2CCSCC2)c1`, the z-score is -0.739.

For `COC(=O)c1ccccc1OCC(=O)N1CCN(c2ccc(Cl)cc2)CC1`, the z-score was -0.272.

Compound `CCOC1CCCCC1NS(=O)(=O)c1ccc(Cl)cc1` (configuration not stated) came in with a z-score of 0.534.

In the case of `c1cnc(N2CCN(c3nc4ccccc4n4cnnc34)CC2)nc1`, the z-score is -0.344.

With `O=C(CN1C(=O)c2ccccc2S1(=O)=O)Nc1ccc(S(=O)(=O)N2CCCCCC2)cc1`, the z-score worked out at 0.0349.

As to `COc1ccc(OCC(O)Cn2c(Nc3ccccc3)nc3c2c(=O)n(C)c(=O)n3C)cc1` (configuration not stated), the z-score was -0.45.

The compound `Cn1cnnc1SCCC(=O)Nc1ccccc1` gave a z-score of 0.0273.

In turn, `O=C(Cc1ccc(Br)cc1)OCC(=O)c1ccc2c(c1)OCCO2` yielded a z-score of 1.25.

The compound `Fc1ccc(C(c2nnnn2Cc2cccs2)N2CCN(C3CCCC3)CC2)cc1` (configuration not stated) came in with a z-score of 1.73.

`O=C(Nc1nc2c(s1)CCCC2)c1ccc(Br)o1` registered a z-score of 1.13.

Consider `C=CCn1c(CNC(=O)c2cccs2)nnc1SCC(=O)c1ccc(Br)cc1`, for which the z-score was -0.0812.

Compound `NS(=O)(=O)c1ccc(CCN2C(=O)/C(=C\c3ccc(Cl)cc3)SC2=S)cc1` yielded a z-score of 0.283.

Regarding `O=C(Nc1nnc(SCc2ccc(F)cc2)s1)c1ccco1`, the z-score came out at 0.289.

The compound `COc1ccccc1NC(=O)Cn1nnc(-c2ccccc2NC(=O)c2cccs2)n1` registered a z-score of 0.0987.

The compound `O=C(Nc1ccc(Cl)cc1)Nc1nnc(CSCc2ccccc2Cl)s1` showed a z-score of 0.0978.

In turn, `CCOC(=O)c1ccc(NS(=O)(=O)c2cccc3nsnc23)cc1` registered a z-score of 0.11.

The compound `CCCc1nnc(SCc2ccc(C(=O)OC)o2)n1N` displayed a z-score of 0.907.

`COCC(=O)N/N=C/c1ccc(Sc2nc3ccccc3s2)o1`: the z-score is -1.01.

Consider `Cc1cccc(-n2c(C)nc3c(cnn3-c3ccc(F)cc3)c2=O)c1`, for which the z-score is 1.02.

On to `COc1ccccc1CN(Cc1nc2ccccc2c(=O)[nH]1)C(=O)Nc1ccccc1`, for which the z-score is -0.0817.

`CCN1CCN(C(=S)c2ccc(SC)cc2)CC1`: the z-score is -0.71.

`CC(=O)N(CN1C(=O)c2ccccc2C1=O)c1ccccc1` gave a z-score of 0.329.

`CCOc1cc(/C=C2\NC(=S)N(c3c(C)n(C)n(-c4ccccc4)c3=O)C2=O)ccc1O` registered a z-score of 0.0819.

In the case of `O=C(/C=C/c1ccccc1Cl)N(Cc1ccccc1)C1CCS(=O)(=O)C1` (configuration not stated), the z-score is -1.26.

On to `c1ccc(-n2c(-c3ccncc3)nnc2-c2ccco2)cc1`, for which the z-score was found to be 0.294.

For `COC(=O)[C@H](C)NC(=O)Nc1ccc(OC(F)(F)F)cc1`, the z-score is -0.197.

Compound `Cc1nc(C)c(C(=O)Nc2ccc(C)c(F)c2)o1` displayed a z-score of 0.227.

For `Cc1ccc(C(=O)NNC(=O)C2CCN(c3nccc(C)n3)CC2)cc1`, the z-score was -0.385.

Turning to `COCc1nc(-c2ccc(-c3ccc(C)cc3)nc2OC)no1`, the z-score was determined as 0.1.

For `CCOC(=O)c1sc(NC(=O)c2cncc(Br)c2)nc1C`, the z-score is -0.223.

For `Cc1cc(Nc2ccccc2)nc(N2CCOCC2)n1`, the z-score was -0.0604.

The compound `Cc1cc(C)c(C#N)c(N2CCOCC2)n1` had a z-score of 0.142.

In the case of `CCOC(=O)C(C)Oc1cccc2c(=O)n(CC(=O)Nc3cccc(OC)c3)ccc12` (configuration not stated), the z-score is 0.0424.

For the compound `CCOC(=O)c1cn(CC(=O)Nc2ccc(CC)cc2)nn1`, the z-score is 0.223.

For `c1coc(-c2nnc3sc(Cc4cccs4)nn23)c1`, the z-score is -0.366.

`N#Cc1cc(-c2ccccc2)nnc1Oc1ccccc1`: the z-score was -0.14.

Regarding `CCN(CC)c1ccc(N2C(=O)/C(=C/c3cccs3)SC2=S)cc1`, the z-score came to 0.0712.

Regarding `CC(C)Cc1nc2oc3c(NCc4cccnc4)ncnc3c2c2c1CCC2`, the z-score was -0.161.

On to `CCOc1cc(S(=O)(=O)Nc2ccc(Cl)cn2)ccc1F`, for which the z-score is 0.00716.

For `CCCN(CCC)C(=O)C1CCN(c2cc(C)nc3c(-c4ccc(OC)c(OC)c4)c(C)nn23)CC1`, the z-score is -0.644.

On to `CCN(CC)S(=O)(=O)c1ccc(C(=O)NCc2ccc(C)cc2)cc1`, for which the z-score turned out to be 0.0057.

Regarding `N#CCC(=N)N1CCN(c2cccc(Cl)c2)CC1`, the z-score was -0.0514.

Regarding `COc1ccc(CN2CC(C(=O)NCCCN3CCCCCC3)CC2=O)cc1` (configuration not stated), the z-score is 1.42.

For the compound `Cc1ccc(S(=O)(=O)NCCC(C)C)cc1[N+](=O)[O-]`, the z-score is -0.28.

With `Cc1ccc(C2CC(=O)NC(SCC(=O)Nc3nccs3)=C2C#N)cc1` (configuration not stated), the z-score is -0.395.

Regarding `O=C(NCC1CCCO1)C1CCN(S(=O)(=O)N2CCCC2)CC1` (configuration not stated), the z-score is -0.0936.

In the case of `O=C(c1ccc(S(=O)(=O)N2CCCCC2)cc1)N1CCN(c2ccccc2F)CC1`, the z-score was -0.401.

In the case of `CCC(C)(C)NC(=O)C(c1ccc(F)cc1)N(Cc1ccco1)C(=O)c1snc(C(N)=O)c1N` (configuration not stated), the z-score is -0.00804.

In the case of `CCOCCCNCC(O)c1ccccc1` (configuration not stated), the z-score is -0.41.

`Cc1ccc(CN2C(=O)CCC2C(=O)NCCCN2CCCC(C)C2)cc1` (configuration not stated): the z-score is -0.173.

`Cc1ccccc1SCC(=O)N1CCN(c2ccc(C(F)(F)F)cn2)CC1`: the z-score was -0.139.

As for `CC1CCN(CC(O)COc2ccc(F)cc2)CC1` (configuration not stated), the z-score is -0.0578.

`O=C(Nc1ccccc1C(F)(F)F)c1cc(-c2ccc(O)cc2)on1` gave a z-score of 0.798.

The compound `CC(C)(C)c1ccc(OCC(=O)N/N=C/c2cc(Br)ccc2OC(=O)c2ccco2)cc1` came in with a z-score of 0.242.

Compound `CN(C)CCCNC(=O)CCC1CCCCC1` displayed a z-score of 0.923.

Consider `COc1cc(OC)c(NC(=O)c2c(-c3ccccc3)noc2C)cc1Cl`, for which the z-score was -0.878.

Compound `COc1ccc(OC)c(NC(=O)COC(=O)Cc2ccc(-c3ccccc3)cc2)c1` showed a z-score of 0.0716.

For the compound `CC1=CC2=NC(=O)/C(=C\c3cccn3CCOc3cccc(C)c3)C(=N)N2O1`, the z-score was -0.65.

`CCC(=O)Nc1ccc2c(c1)nc(CN1CCN(C(C)=O)CC1)n2C` yielded a z-score of 0.096.

Turning to `Cc1ccc2c(c1)N(CC(=O)NCc1cccs1)C(=O)C(C)O2` (configuration not stated), the z-score was -0.886.

With `CCc1nnc(NC(=O)CSc2nc(-c3ccccc3)nc3ccccc23)s1`, the z-score was -0.175.

Regarding `C=CCn1c(=O)/c(=C2/SC(C)=C(C)N2CC)s/c1=C1/C(=O)N(C)C(=S)N1c1ccccc1`, the z-score stood at 0.574.

With `Cn1c(=O)[nH]c(=O)c2c1nc(Br)n2CCCCSc1nc2ccccc2o1`, the z-score was -0.162.

`Cc1ccccc1CSc1nnc(NC(=O)C2COc3ccccc3O2)s1` (configuration not stated) came in with a z-score of 0.0129.

With `CN(CCNC(=O)CN1CCN(Cc2ccccc2Cl)C1=O)Cc1ccccc1`, the z-score is -0.17.

`O=C1NCCN1C(=O)C12CC3CC(CC(C3)C1)C2` yielded a z-score of 0.994.

Regarding `OCCN1CCN(c2nc(NCc3ccco3)c3ccccc3n2)CC1`, the z-score was -0.079.
